Results as given in article PMC5589878, “Development of Fluorescent Probes that Target Serotonin 5-HT2B Receptors” (Scientific Reports, 2017).

Tests used:
5-HT2B receptors [1] = biological target: T1, 5-HT2B receptors (Homo sapiens, UniProt P41595); experiment: Functional assay of IPs accumulation at human 5-HT2B receptors; format: cell-based; conditions: CHO-K1-5-HT2B cells
5-HT2B receptors [2] = biological target: T1, 5-HT2B receptors; experiment: Radioligand competition binding assay at human 5-HT2B receptors; conditions: [3H]LSD, membranes from CHO-K1-5-HT2B cells
5-HT2B receptors [3] = biological target: T1, 5-HT2B receptors; experiment: Labelling of 5-HT2B receptors in live CHO-K1-5-HT2B cells (fluorescence microscopy, plate reader, confocal); format: cell-based

T1 sequence (P41595 whole entry): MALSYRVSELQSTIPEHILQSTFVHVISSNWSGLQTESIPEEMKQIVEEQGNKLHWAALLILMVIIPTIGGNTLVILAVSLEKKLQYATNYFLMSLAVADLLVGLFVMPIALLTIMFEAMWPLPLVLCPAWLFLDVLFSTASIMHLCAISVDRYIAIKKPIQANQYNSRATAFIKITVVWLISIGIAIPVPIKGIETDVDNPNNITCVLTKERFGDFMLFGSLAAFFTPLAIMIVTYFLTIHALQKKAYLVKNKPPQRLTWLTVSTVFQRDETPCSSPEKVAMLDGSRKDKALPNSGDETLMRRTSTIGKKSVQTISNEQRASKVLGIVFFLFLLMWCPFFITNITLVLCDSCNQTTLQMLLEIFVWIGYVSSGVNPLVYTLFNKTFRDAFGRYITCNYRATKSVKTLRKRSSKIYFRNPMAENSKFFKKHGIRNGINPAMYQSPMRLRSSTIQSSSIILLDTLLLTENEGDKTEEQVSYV

Row | Compound | Functional data at 5-HT2B % at 1 μM (5-HT2B receptors [1]) [%] | EC50 (5-HT2B receptors [1]) [nM] | also measured
1 | 3-(2-(2-(2-(2-aminopropyl)-5-iodo-4-methoxyphenoxy)ethoxy)ethoxy)-N-(3-((5-(dimethylamino)naphthalene)-1-sulfonamido)propyl)propanamide [10d] | 5 |  | Binding at 5-HT2 receptors % at 1 μM 5-HT2B (5-HT2B receptors [2]): 37.4%
2 | COc1cc(CC(C)N)c(OCCCCCCCCCCC(=O)NCCCNS(=O)(=O)c2cccc3c(N(C)C)cccc23)cc1I (stereo not shown) [10c, 11-(2-(2-aminopropyl)-5-iodo-4-methoxyphenoxy)-N-(3-((5-(dimethyl-amino)naphthalene)-1-sulfonamido)propyl)undecanamide] | 31 |  | 
3 | COC(=O)c1c(C(=O)OCCCNC(=O)CCCOc2cc(I)c(OC)cc2CC(C)N)c2cc3ccccc3cc2c2cc3ccccc3cc12 (stereo not shown) [12g, 6-(3-(4-(2-(2-aminopropyl)-5-iodo-4-methoxyphenoxy)butanamido)pro-pyl) 7-methyl pentaphene-6,7-dicarboxylate] |  | 259 | 
4 | CCCCCCC(CCCCCC)N1C(=O)c2ccc3c4ccc5c6c(ccc(c7ccc(c2c37)C1=O)c64)C(=O)N(CCCNC(=O)CCCOc1cc(I)c(OC)cc1CC(C)N)C5=O (stereo not shown) [12h, 4-(2-(2-aminopropyl)-5-iodo-4-methoxyphenoxy)-N-(3-(1,3,8,10-tetraoxo-9-(tridecan-7-yl)-3,8,9,10-tetrahydroanthra[2,1,9-def:6,5,10-d′e′f′]diisoquinolin-2(1H)-yl)propyl)butanamide] |  | 4190 | 
5 | CCN(CC)c1ccc2c(-c3ccccc3C(=O)NCCC(=O)NCCC(=O)NCCCOCCOCCOCCCNC(=O)CCCOc3cc(I)c(OC)cc3CC(C)N)c3ccc(=[N+](CC)CC)cc-3oc2c1 (stereo not shown) [12i, N-(9-(2-((26-(2-(2-aminopropyl)-5-iodo-4-methoxyphenoxy)-3,7,23-trioxo-12,15,18-trioxa-4,8,22-triazahexacosyl)carbamoyl)phenyl)-6-(diethylamino)-3H-xanthen-3-ylidene)-N-ethylethanaminium] |  |  | location of probe fluorescence in CHO-K1-5-HT2B cells (confocal microscopy) (5-HT2B receptors [3]; 3 μM, 10 min incubation at 37 °C): mainly located in intracellular compartments; specific labelling of 5-HT2B receptors in CHO-K1-5-HT2B cells versus parental CHO-K1 cells (5-HT2B receptors [3]; live cells, high content fluorescence imaging, at least three concentrations): concentration-dependent specific labelling
